The name of at least one read-out is uncertain.
System: CyclinD1 (CCND1)
Assay: Cyclin D1 (CCND1) percentage degradation in Calu-1 cells (Table 6)
Assay type: cell-based
Conditions: 16 hours

| SMILES | CyclinD1 Degradation (40 nM) | CyclinD1 Degradation (200 nM) |
| --- | --- | --- |
| CNc1ccc(C(=O)Nc2ccc(C3CC3)nn2)c(NCCCCCNC(=O)CN2CCN(c3ccc(Nc4ncc5c(C)c(C(C)=O)c(=O)n(C6CCCC6)c5n4)nc3)CC2)n1 [CPD-31, 2-((5-(2-(4-(6-((6-Acetyl-8-cyclopentyl-5-methyl-7-oxo-7,8-dihydropyrido[2,3-d]pyrimidin-2-yl)amino)pyridin-3-yl)piperazin-1-yl)acetamido)pentyl)amino)-N-(6-cyclopropylpyridazin-3-yl)-6-(methylamino)nicotinamide] | D (degradation activity <30%) | A (degradation activity >80%) |
| CNc1ccc(C(=O)Nc2ccc3c(cnn3C)n2)c(NCCCCCNC(=O)CN2CCN(c3ccc(Nc4ncc5c(C)c(C(C)=O)c(=O)n(C6CCCC6)c5n4)nc3)CC2)n1 [CPD-32] | D (degradation activity <30%) | D (degradation activity <30%) |
| CNc1ccc(C(=O)Nc2ccc3c(ccn3C)n2)c(NCCCCCNC(=O)CN2CCN(c3ccc(Nc4ncc5c(C)c(C(C)=O)c(=O)n(C6CCCC6)c5n4)nc3)CC2)n1 [CPD-33, 2-((5-(2-(4-(6-((6-Acetyl-8-cyclopentyl-5-methyl-7-oxo-7,8-dihydropyrido[2,3-d]pyrimidin-2-yl)amino)pyridin-3-yl)piperazin-1-yl)acetamido)pentyl)amino)-N-(1-methyl-1H-pyrrolo[3,2-b]pyridin-5-yl)-6-(methylamino)nicotinamide] | A (degradation activity >80%) | A (degradation activity >80%) |
| CNc1ccc(C(=O)Nc2ccc(N(C)C)nn2)c(NC2CC(CCNC(=O)CN3CCN(c4ccc(Nc5ncc6c(C)c(C(C)=O)c(=O)n(C7CCCC7)c6n5)nc4)CC3)C2)n1 (stereo not drawn) [CPD-34, 2-((3-(2-(2-(4-(6-((6-Acetyl-8-cyclopentyl-5-methyl-7-oxo-7,8-dihydropyrido[2,3-d]pyrimidin-2-yl)amino)pyridin-3-yl)piperazin-1-yl)acetamido)ethyl)cyclobutyl)amino)-N-(6-(dimethylamino)pyridazin-3-yl)-6-(methylamino)nicotinamide] | A (degradation activity >80%) | A (degradation activity >80%) |
| CNc1ccc(C(=O)Nc2ccc(N(C)C)nn2)c(NC2CC(CCNC(=O)N3CCN(c4ccc(Nc5ncc6c(C)c(C(C)=O)c(=O)n(C7CCCC7)c6n5)nc4)CC3)C2)n1 (stereo not drawn) [CPD-35, 4-(6-((6-Acetyl-8-cyclopentyl-5-methyl-7-oxo-7,8-dihydropyrido[2,3-d]pyrimidin-2-yl)amino)pyridin-3-yl)-N-(2-(3-((3-((6-(dimethylamino)pyridazin-3-yl)carbamoyl)-6-(methylamino)pyridin-2-yl)amino)cyclobutyl)ethyl)piperazine-1-carboxamide] | A (degradation activity >80%) | A (degradation activity >80%) |
| CNc1ccc(C(=O)Nc2ccc(N(C)C)nn2)c(NCCCCC(=O)NCCN2CCN(c3ccc(Nc4ncc5c(C)c(C(C)=O)c(=O)n(C6CCCC6)c5n4)nc3)CC2)n1 [CPD-36, 2-((5-((2-(4-(6-((6-Acetyl-8-cyclopentyl-5-methyl-7-oxo-7,8-dihydropyrido[2,3-d]pyrimidin-2-yl)amino)pyridin-3-yl)piperazin-1-yl)ethyl)amino)-5-oxopentyl)amino)-N-(6-(dimethylamino)pyridazin-3-yl)-6-(methylamino)nicotinamide] | D (degradation activity <30%) | A (degradation activity >80%) |
| CNc1ccc(C(=O)Nc2ccc(N(C)C)nn2)c(NCCCCNC(=O)CCN2CCN(c3ccc(Nc4ncc5c(C)c(C(C)=O)c(=O)n(C6CCCC6)c5n4)nc3)CC2)n1 [CPD-37, 2-((4-(3-(4-(6-((6-acetyl-8-cyclopentyl-5-methyl-7-oxo-7,8-dihydropyrido[2,3-d]pyrimidin-2-yl)amino)pyridin-3-yl)piperazin-1-yl)propanamido)butyl)amino)-N-(6-(dimethylamino)pyridazin-3-yl)-6-(methylamino)nicotinamide] | A (degradation activity >80%) | A (degradation activity >80%) |
| CNc1ccc(C(=O)Nc2ccc3ncn(C)c3n2)c(NCCCCCNC(=O)CN2CCN(c3ccc(Nc4ncc5c(C)c(C(C)=O)c(=O)n(C6CCCC6)c5n4)nc3)CC2)n1 [CPD-38, 2-((5-(2-(4-(6-((6-Acetyl-8-cyclopentyl-5-methyl-7-oxo-7,8-dihydropyrido[2,3-d]pyrimidin-2-yl)amino)pyridin-3-yl)piperazin-1-yl)acetamido)pentyl)amino)-N-(3-methyl-3H-imidazo[4,5-b]pyridin-5-yl)-6-(methylamino)nicotinamide] | A (degradation activity >80%) | A (degradation activity >80%) |
| CNc1ccc(C(=O)Nc2ccc(N(C)C)nn2)c(NC2CC3(CC(NC(=O)CN4CCN(c5ccc(Nc6ncc7c(C)c(C(C)=O)c(=O)n(C8CCCC8)c7n6)nc5)CC4)C3)C2)n1 (stereo not drawn) [CPD-39, 2-((6-(2-(4-(6-((6-Acetyl-8-cyclopentyl-5-methyl-7-oxo-7,8-dihydropyrido[2,3-d]pyrimidin-2-yl)amino)pyridin-3-yl)piperazin-1-yl)acetamido)spiro[3.3]heptan-2-yl)amino)-N-(6-(dimethylamino)pyridazin-3-yl)-6-(methylamino)nicotinamide] | A (degradation activity >80%) | A (degradation activity >80%) |
| CNc1ccc(C(=O)Nc2ccc3c(n2)CCC3)c(NCCCCCNC(=O)CN2CCN(c3ccc(Nc4ncc5c(C)c(C(C)=O)c(=O)n(C6CCCC6)c5n4)nc3)CC2)n1 [CPD-40, 2-((5-(2-(4-(6-((6-Acetyl-8-cyclopentyl-5-methyl-7-oxo-7,8-dihydropyrido[2,3-d]pyrimidin-2-yl)amino)pyridin-3-yl)piperazin-1-yl)acetamido)pentyl)amino)-N-(6,7-dihydro-5H-cyclopenta[b]pyridin-2-yl)-6-(methylamino)nicotinamide] | A (degradation activity >80%) | A (degradation activity >80%) |
| CNc1ccc(C(=O)Nc2ccc(N(C)C)nn2)c(NCCC2CC(NC(=O)CN3CCN(c4ccc(Nc5ncc6c(C)c(C(C)=O)c(=O)n(C7CCCC7)c6n5)nc4)CC3)C2)n1 (stereo not drawn) [CPD-41, 2-((2-(3-(2-(4-(6-((6-Acetyl-8-cyclopentyl-5-methyl-7-oxo-7,8-dihydropyrido[2,3-d]pyrimidin-2-yl)amino)pyridin-3-yl)piperazin-1-yl)acetamido)cyclobutyl)ethyl)amino)-N-(6-(dimethylamino)pyridazin-3-yl)-6-(methylamino)nicotinamide] | A (degradation activity >80%) | A (degradation activity >80%) |
| CNc1ccc(C(=O)Nc2ccc(N(C)C)nn2)c(N2CCC(CCNC(=O)CN3CCN(c4ccc(Nc5ncc6c(C)c(C(C)=O)c(=O)n(C7CCCC7)c6n5)nc4)CC3)CC2)n1 [CPD-42, 2-(4-(2-(2-(4-(6-((6-Acetyl-8-cyclopentyl-5-methyl-7-oxo-7,8-dihydropyrido[2,3-d]pyrimidin-2-yl)amino)pyridin-3-yl)piperazin-1-yl)acetamido)ethyl)piperidin-1-yl)-N-(6-(dimethylamino)pyridazin-3-yl)-6-(methylamino)nicotinamide] | D (degradation activity <30%) | D (degradation activity <30%) |

Reference: patent publication US20260297081A1, “COMPOUNDS AND METHODS OF TREATING CANCERS” (Cullgen Inc., priority 2023, published 2026)
